Assay results published in patent publication US9447027B2, “Treating long QT syndrome” (The General Hospital Corporation, priority 2010, dated 2016).

Assays:
[1] = Rabbit pharmacokinetic study; type: in vivo; settings: serum, 10 mg in phosphate buffered saline injected over 30 seconds
[2] = tested on: I59S KCNH2 mutant zebrafish cardiomyocytes; assay: Whole cell current clamp recordings of isolated zebrafish cardiomyocytes; settings: current-clamp mode, perfusion with 10 μM solution
[3] = tested on: I59S zERG; assay: I59S zERG trafficking in transfected HEK cells (Western blot, immunofluorescence); settings: for restoration of the upper protein band of the zERG mutant I59S: Western blot, incubation with known trafficking correctors
[4] = tested on: Zebrafish harboring the I59S KCNH2 mutation (breakdance); settings: in vivo
[5] = tested on: Zebrafish harboring the I59S KCNH2 mutation (breakdance); assay: Steroid compound screen, dose response of rescue from 2:1 AV block; settings: 0.1, 0.5, 1, 10, 50 and 100 μM for 24 hours
[6] = HEK cells transfected with I59S zERG, 100 μM, 24 hours

## COc1ccccc1C(=O)Nc1ccc(C)cc1 [2-MMB, 2-methoxy-N-(4-methylphenyl)benzamide]
[1]
  half-life: 15 s
[2]
  effect on the action potential of mutant cardiomyocytes: shortening of the action potential
[3]; [6]
  percentage of the mature glycoform on Western blot: did not appreciably change
  surface expression / membrane localization of I59S zERG by immunofluorescence: does not alter surface expression

## CC(=O)OCC(=O)[C@H]1CC[C@H]2[C@@H]3CCC4=CC(=O)CC[C@]4(C)[C@H]3CC[C@]12C [deoxycorticosterone acetate]
[4]
  rescue from 2:1 AV block, dose response: no activity

## C[C@@H]1C[C@H]2[C@@H]3CCC4=CC(=O)C=C[C@]4(C)[C@@]3(F)[C@@H](O)C[C@]2(C)[C@@]1(O)C(=O)CO [dexamethasone]
[5]
  rescue from 2:1 AV block, dose response: rescue

## CN(CCOc1ccc(NS(C)(=O)=O)cc1)CCc1ccc(NS(C)(=O)=O)cc1 [dofetilide]
[3]
  restoration of the upper protein band of the zERG mutant I59S: partially restored

## CC1(C)O[C@@H]2C[C@H]3[C@@H]4C[C@H](F)C5=CC(=O)CC[C@]5(C)[C@H]4[C@@H](O)C[C@]3(C)[C@]2(C(=O)CO)O1 [flurandrenolide]
[5]
  rescue from 2:1 AV block, dose response: rescue

## C/C=C(/C)C(=O)O[C@H]1C(C)=C2[C@H]([C@@H]1OC(=O)CCCCCCC)[C@@](C)(OC(C)=O)C[C@H](OC(=O)CCC)[C@@]1(O)[C@H]2OC(=O)[C@@]1(C)O [thapsigargin]
[3]
  restoration of the upper protein band of the zERG mutant I59S: not

Where two headings read alike, the source gives them in different places.
